Measurements published in patent US10273244B2, “Substituted hexahydropyrrolo[3,4-b]pyrroles and hexahydrocyclopenta[c]pyrroles as dopamine receptor modulators” (INDIVIOR UK LIMITED, priority 2015, dated 2019).

Target: human dopamine type 3 receptor (CHO-hD3 membranes) (Homo sapiens (Human), UniProt P35462)
Conditions: displacement of 0.3 nM [3H]-Spiperone

Sequence of UniProt P35462 (P35462 whole entry): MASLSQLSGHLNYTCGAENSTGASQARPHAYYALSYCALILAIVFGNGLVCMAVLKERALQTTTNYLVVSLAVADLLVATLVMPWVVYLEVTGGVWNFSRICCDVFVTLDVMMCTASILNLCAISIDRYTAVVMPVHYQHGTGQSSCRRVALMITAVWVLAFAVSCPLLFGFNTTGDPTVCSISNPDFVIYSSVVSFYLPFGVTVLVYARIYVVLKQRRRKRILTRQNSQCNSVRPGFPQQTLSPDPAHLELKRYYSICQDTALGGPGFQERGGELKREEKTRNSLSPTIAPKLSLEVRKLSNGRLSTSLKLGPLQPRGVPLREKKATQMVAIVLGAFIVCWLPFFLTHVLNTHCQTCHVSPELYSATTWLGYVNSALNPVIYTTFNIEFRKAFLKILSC

Row | SMILES | D3 pKi
1 | Cn1c(SCCCN2C[C@@H]3CCN(c4ccc(C(F)(F)F)cc4)[C@@H]3C2)nnc1C1CCC(O)CC1 (single isomer, unassigned) [Example 219, 4-[5-({3-[(3aS,6aS or 3aR,6aR)-1-[4-(trifluoromethyl)phenyl]-octahydropyrrolo[2,3-c]pyrrol-5-yl]propyl}sulfanyl)-4-methyl-4H-1,2,4-triazol-3-yl]cyclohexan-1-ol] | 8.67
2 | Cn1c(SCCCN2CC3CCN(c4cnc(C(F)(F)F)cn4)C3C2)nnc1C1CCOCC1 (centres unmarked) [Example 49, 2-[5-(3-{[4-methyl-5-(oxan-4-yl)-4H-1,2,4-triazol-3-yl]sulfanyl}propyl)-octahydropyrrolo[2,3-c]pyrrol-1-yl]-5-(trifluoromethyl)pyrazine] | 7.06
3 | Cn1c(SCCCN2CC3CCN(c4ccc(C(F)(F)F)nc4)C3C2)nnc1C1CCOCC1 (centres unmarked) [Example 50, 5-[5-(3-{[4-methyl-5-(oxan-4-yl)-4H-1,2,4-triazol-3-yl]sulfanyl}propyl)-octahydropyrrolo[3,4-b]pyrrol-1-yl]-2-(trifluoromethyl)pyridine] | 7.28
4 | Cn1c(SCCCN2CC3CCN(c4cccnc4)C3C2)nnc1C1CCCCC1 (centres unmarked) [Example 66, 3-(5-{3-[(5-cyclohexyl-4-methyl-4H-1,2,4-triazol-3-yl)sulfanyl]propyl}-octahydropyrrolo[2,3-c]pyrrol-1-yl)pyridine] | 7.94
5 | Cn1c(SCCCN2CC3CCN(c4cccc(C#N)c4)C3C2)nnc1-c1cnccn1 (centres unmarked) [Example 94, 3-[5-(3-{[4-methyl-5-(pyrazin-2-yl)-4H-1,2,4-triazol-3-yl]sulfanyl}propyl)-octahydropyrrolo[3,4-b]pyrrol-1-yl]benzonitrile] | 8.68
6 | Cn1c(SCCCN2CC3CCN(c4ccc(F)cc4)C3C2)nnc1-c1cnccn1 (centres unmarked) [Example 95, 2-[5-({3-[1-(4-fluorophenyl)-octahydropyrrolo[3,4-b]pyrrol-5-yl]propyl}sulfanyl)-4-methyl-4H-1,2,4-triazol-3-yl]pyrazine] | 8.68
7 | Cn1c(SCCCN2CC3CCN(c4cccc(F)c4)C3C2)nnc1-c1cnccn1 (centres unmarked) [Example 100, 2-[5-({3-[1-(3-fluorophenyl)-octahydropyrrolo[3,4-b]pyrrol-5-yl]propyl}sulfanyl)-4-methyl-4H-1,2,4-triazol-3-yl]pyrazine] | 8.34
8 | Cc1ccc(N2CCC3CN(CCCSc4nnc(-c5cnccn5)n4C)CC32)cc1 (centres unmarked) [Example 108, 2-[4-methyl-5-({3-[1-(4-methylphenyl)-octahydropyrrolo[3,4-b]pyrrol-5-yl]propyl}sulfanyl)-4H-1,2,4-triazol-3-yl]pyrazine] | 8.12
9 | Cc1cccc(N2CCC3CN(CCCSc4nnc(-c5cnccn5)n4C)CC32)c1 (centres unmarked) [Example 111, 2-[4-methyl-5-({3-[1-(3-methylphenyl)-octahydropyrrolo[3,4-b]pyrrol-5-yl]propyl}sulfanyl)-4H-1,2,4-triazol-3-yl]pyrazine] | 8.39
10 | COc1ccccc1N1CCC2CN(CCCSc3nnc(-c4cnccn4)n3C)CC21 (centres unmarked) [Example 112, 2-[5-({3-[1-(2-methoxyphenyl)-octahydropyrrolo[3,4-b]pyrrol-5-yl]propyl}sulfanyl)-4-methyl-4H-1,2,4-triazol-3-yl]pyrazine] | 7.78
11 | Cn1c(SCCCN2CC3CCN(c4ccc(F)cc4)C3C2)nnc1-c1ccncn1 (centres unmarked) [Example 139, 4-[5-({3-[1-(4-fluorophenyl)-octahydropyrrolo[3,4-b]pyrrol-5-yl]propyl}sulfanyl)-4-methyl-4H-1,2,4-triazol-3-yl]pyrimidine] | 8.83
12 | CC(=O)N1CCC(c2nnc(SCCCN3CC4CCN(c5ccc(C(F)(F)F)cc5)C4C3)n2C)CC1 (centres unmarked) [Example 140, 1-(4-{4-methyl-5-[(3-{1-[4-(trifluoromethyl)phenyl]-octahydropyrrolo[3,4-b]pyrrol-5-yl}propyl)sulfanyl]-4H-1,2,4-triazol-3-yl}piperidin-1-yl)ethan-1-one] | 7.81
13 | Cn1c(OCCCN2CC3CCN(c4ccc(C(F)(F)F)cc4)C3C2)nnc1C1CCOCC1 (centres unmarked) [Example 212, 4-methyl-3-(oxan-4-yl)-5-(3-{1-[4-(trifluoromethyl)phenyl]-octahydro-pyrrolo[3,4-b]pyrrol-5-yl}propoxy)-4H-1,2,4-triazole] | 7.80
14 | Cn1c(SCCCN2CC3CCN(c4ccc(C(F)(F)F)cc4)C3C2)nnc1C1CCC(O)CC1 (centres unmarked) [Example 218, 4-{4-methyl-5-[(3-{1-[4-(trifluoromethyl)phenyl]-octahydropyrrolo[2,3-c]pyrrol-5-yl}propyl)sulfanyl]-4H-1,2,4-triazol-3-yl}cyclohexan-1-ol] | 8.9

The next lines start with the values.

Row | D3 pKi | SMILES
15 | 7.74 | Cc1ncoc1-c1nnc(SCCCN2C[C@@H]3CN(c4ccc(C(F)(F)F)cc4)[C@@H]3C2)n1C (single isomer, unassigned) [Example 229, (1R,5S or 1S,5R)-3-(3-{([4-methyl-5-(4-methyl-1,3-oxazol-5-yl)-4H-1,2,4-triazol-3-yl]sulfanyl}propyl)-6-[4-(trifluoromethyl)phenyl]-3,6-diazabicyclo[3.2.0]heptane]
16 | 8.23 | Cc1ncoc1-c1nnc(SCCCN2C[C@H]3CCN(c4cccc(C#N)c4)[C@H]3C2)n1C.Cl.Cl [Example 11, 3-[(3aR,6aR or 3aS,6aS)-5-(3-{[4-methyl-5-(4-methyl-1,3-oxazol-5-yl)-4H-1,2,4-triazol-3-yl]sulfanyl}propyl)-octahydropyrrolo[2,3-c]pyrrol-1-yl]benzonitrile dihydrochloride]
17 | 8.34 | Cc1ncoc1-c1nnc(SCCCN2C[C@@H]3CCN(c4ccc(C(F)(F)F)cc4F)[C@@H]3C2)n1C.Cl.Cl [Example 20, 3-({3-[(3aS,6aS)-1-[2-fluoro-4-(trifluoromethyl)phenyl]-octahydropyrrolo[2,3-c]pyrrol-5-yl]propyl}sulfanyl)-4-methyl-5-(4-methyl-1,3-oxazol-5-yl)-4H-1,2,4-triazole]
18 | 8.97 | Cc1ncoc1-c1nnc(SCCCN2CC3CCN(c4ccccc4OC(F)(F)F)C3C2)n1C (centres unmarked) [Example 25, 4-methyl-3-(4-methyl-1,3-oxazol-5-yl)-5-[(3-{1-[2-(trifluoromethoxy)phenyl]-octahydropyrrolo[3,4-b]pyrrol-5-yl}propyl)sulfanyl]-4H-1,2,4-triazole]
19 | 8.40 | Cn1c(SCCCN2CC3CCN(c4ccc(C(F)(F)F)cc4)C3C2)nnc1N1CCOCC1 (centres unmarked) [Example 81, 4-{4-methyl-5-[(3-{1-[4-(trifluoromethyl)phenyl]-octahydropyrrolo[3,4-b]pyrrol-5-yl}propyl)sulfanyl]-4H-1,2,4-triazol-3-yl}morpholine]
20 | 7.91 | Cn1c(SCCCN2CC3CCN(c4ccc(C(F)(F)F)cc4)C3C2)nnc1-c1ccnnc1 (centres unmarked) [Example 86, 4-{4-methyl-5-[(3-{1-[4-(trifluoromethyl)phenyl]-octahydropyrrolo[3,4-b]pyrrol-5-yl}propyl)sulfanyl]-4H-1,2,4-triazol-3-yl}pyridazine]
21 | 7.43 | Cc1ncoc1-c1nnc(SCCCN2CC3CN(c4ccc(C(F)(F)F)cc4)C3C2)n1C (centres unmarked) [Example 228, 3-(3-{[4-methyl-5-(4-methyl-1,3-oxazol-5-yl)-4H-1,2,4-triazol-3-yl]sulfanyl}propyl)-6-[4-(trifluoromethyl)phenyl]-3,6-diazabicyclo[3.2.0]heptane]
22 | 7.94 | Cc1ncoc1-c1nnc(SCCCN2CC3CCCN(c4ccc(C(F)(F)F)cc4)C3C2)n1C (centres unmarked) [Example 231, 4-methyl-3-(4-methyl-1,3-oxazol-5-yl)-5-[(3-{1-[4-(trifluoromethyl)phenyl]-octahydro-1H-pyrrolo[3,4-b]pyridin-6-yl}propyl)sulfanyl]-4H-1,2,4-triazole]
23 | 7.01 | Cc1ncoc1-c1nnc(SCCCN2CCC3CCN(c4ccc(C(F)(F)F)cc4)C3C2)n1C (centres unmarked) [Example 241, 4-methyl-3-(4-methyl-1,3-oxazol-5-yl)-5-[(3-{1-[4-(trifluoromethyl)phenyl]-octahydro-1H-pyrrolo[2,3-c]pyridin-6-yl}propyl)sulfanyl]-4H-1,2,4-triazole]
